From PubChem BioAssay AID1347416 (National Center for Advancing Translational Sciences (NCATS), 2020)
Hit rate of the full screen: of about 4,100 compounds, about 1,600 (39%) were called active. This list was built around the results that the source calls inconclusive (neither active nor inactive); the mix of calls is not that of the screen. Calls come from the whole dose curve; as a rule, active = well fitted inhibition curve with a large enough effect; inconclusive = small, poorly fitted or top-dose-only effect; inactive = no such curve, though single readings can be large or run the other way. Where the call is inconclusive, the potency comes from a doubtful curve fit.

Experiment: qHTS Validation assay for Inhibitors of Plasmodium falciparum Dd2 growth in vitro; note: nearly all actives have a fitted effect of over 70% in size
Conditions: P. falciparum Dd2 in RBCs, SYBR Green growth, 72 h; activity change, negative = inhibition: at 28.7 µM (top of the series) unless noted
From the text: Malaria, a parasitic disease spread to humans through the bite of a Plasmodium infected Anopheles mosquito, continues to be a global health burden affecting millions of people, with an estimated 228 million cases and 405,000 deaths in 2018. Concerns about safety and limitations of current antimalarial treatments strongly emphasize the need to develop new therapeutic options. The scarce number of chemotypes and validated drug targets with efficacy against the liver stage, have hindered development of new antimalarials. To address this, a chemoprophylactic drug discovery effort was conducted through a combined phenotypic high-throughput asexual blood stage and liver stage screen, providing a robust foundation to identify liver-stage active lead chemotypes. Compounds were initially screened against Plasmodium falciparum Dd2 strain parasites using a in vitro SYBRGreen-1 based 72 hr proliferation assay to identify novel chemotypes to advance to liver stage assays. NIH/NCATS Early Translation Branch Assay Submitter (PI): Anton Simeonov Ph.D.
[…] Assay Protocol: PROTOCOL TABLE (as described by Inglese et al., 2007) SEQUENCE No. (e.g., 1, 2, 3, etc.); PARAMETER (e.g., Cells, Incubation, Reagent, etc.); VALUE; DESCRIPTION SEQUENCE, Parameter, Description 1; Reagent; 3 uL complete malaria growth medium, 1536 TC treated Black clear bottom plate 2; Controls; 23 nL positive control artesunate (300 nM final) to column 1; Neutral control DMSO to columns 2-4 3; Compound; 23 nL of compounds in dose response concentration (29 uM to 0.5 nM final) 4; Reagent; 5 uL malaria infected red blood cells (2.5% hematocrit final, 0.3% parasitemia 5; Time; 72 hours at 37C (5% O2, 5% CO2, 90% N2; 95% Rh) 6; Reagent; 2 uL lysis buffer/SYBRGreen-1, 25 sec shake immediately following dispense 7; Time; ~16 hours at 37C (5% O2, 5% CO2, 90% N2; 95% Rh) 8; Detector; EnVision (PerkinElmer) bottom read at 485/14nm excitation and 535/25 nm emission NOTES (numbers refer to sequence above): 1; Complete Malaria Growth Media: 1X RPMI-1640 w/L-glutamine, 5.5g/L Albumax II, 367 uM Hypoxanthine, 25 mM HEPES, 0.25% Sodium Bicarbonate, 35 uM Gentamicin sulfate 2; Controls were added using the Kalypsis Pintool (Wako USA) equipped with 1536 pinhead 3; Compounds were added in a 7-point, titration with a high final concentration of 29 uM by Pintool from seven inter-plate titrations of library plates and two DMSO control plates at the beginning and end (see Yasgar et al., 2008). 4; Red blood cells infected with Plasmodium falciparum Dd2 parasites were used. 6; Lysis buffer: 20 mM Tris-HCl, 10 mM EDTA, 0.16% Saponin, 1.6% Triton-X, 10X SYBR Green. REFERENCE: Inglese J, Shamu CE, Guy RK. 2007. Reporting data from high-throughput screening of small-molecule libraries. Nat Chem Biol. doi:10.1038/nchembio0807-438 Yasgar A, Shinn P, Jadhav A, Auld D, Michael S, Zheng W, Austin CP, Inglese J, Simeonov A. 2008. Compound Management for Quantitative High-Throughput Screening. J Lab Autom 13:79-89. doi:10.1016/j.jala.2007.12.004
% is set by controls: 0 for no effect and ±100 for the full control effect; potency is the fitted concentration of half-maximal effect; tags give direction and shape of the fitted curve.

SMILES	activity change, negative = inhibition	Potency
O=C(c1cc2cc(Br)ccc2[nH]1)N1CCc2ccccc21	inactive: -28.9%	–
O=C(CCCc1c[nH]c2ccccc12)NCC(=O)N1CCCCCCNC(=O)CC1c1ccccc1 (stereo unspecified)	–	inconclusive: 21.1 µM [inhibitor, single point]
CCCS(=O)(=O)N1CC(=O)N(c2cccc(F)c2)C(C)(C(=O)NC2CCCCCC2)C1 (stereo unspecified)	inactive: 23.3%	–
COc1ccc(NC(=O)Cn2c(C)cc3nc4n(c(=O)c32)CCCC4)cc1Cl	–	inconclusive: 21.1 µM [inhibitor, single point]
O=c1c2c(n(Cc3cccnc3)n1-c1ccccc1)CN(Cc1ccccc1Cl)CC2	–	inconclusive: 34.4 µM [inhibitor, single point]
Cc1cc(C)cc(-n2c(SCC(=O)NCc3ccco3)nc3c([nH]c4ccccc43)c2=O)c1	–	inconclusive: 23.7 µM [inhibitor, single point]
COc1ccc(CN2CCC3(CC2)CC(O)CCO3)c(OC)c1 (stereo unspecified)	inactive: -4%	–
Cc1ccc(NC(=O)C2CCN(c3cc(C(F)(F)F)ncn3)CC2)cc1	–	inconclusive: 21.1 µM [inhibitor, single point]
CCOc1ccccc1NC(=O)C1CCN(S(=O)(=O)c2cc(Br)cc3c2N(C(C)=O)CC3)CC1	–	inconclusive: 13.3 µM [inhibitor, single point]
Cc1ccc(NC(=O)C2CCN(S(=O)(=O)c3ccc4[nH]c(=O)ccc4c3)CC2)cc1C	inactive: 30.7%	–
COc1ccc(NC(C)C(=O)Nc2cc(C(F)(F)F)ccc2N2CCOCC2)c(OC)c1 (stereo unspecified)	–	active: 0.842 µM
CC(C)n1cc2cc(C(=O)N3CCN(Cc4ccc5c(c4)OCO5)CC3)sc2c1	–	inconclusive: 21.1 µM [inhibitor, single point]
COC(=O)c1c(NC(=O)/C(C#N)=C/c2ccc(OC)cc2)sc2c1CCC2	inactive: 23.8%	–
CCN(CC)c1ccc(-c2nnc(SCC(=O)N(CCOC)c3c(N)n(CC(C)C)c(=O)[nH]c3=O)o2)cc1	–	inconclusive: 21.1 µM [inhibitor, single point]
Cc1ccc(S(=O)(=O)NCc2nc3nc(C)cc(C)n3n2)c(C)c1	inactive: 12.5%	–
Cc1ccc(Nc2nnc(SCC(=O)c3ccc(O)cc3O)s2)cc1	inactive: -5.84%	–
CN(C)c1ccc(C(=O)N2CCC(n3cc(-c4nc(-c5ccccc5)no4)nn3)CC2)cc1	–	inconclusive: 21.1 µM [inhibitor, single point]
COc1cccc(CCC(=O)N2CCCCCC2CN2CCC(OC)CC2)c1 (stereo unspecified)	–	inconclusive: 16.8 µM [inhibitor, single point]
Cc1noc(C)c1-c1cc2c(cc(-c3ccccc3)n2C)c(-c2ccnn2C)n1	–	active: 8.63 µM
COc1cccc(CN(C)C2CCc3ccccc32)c1 (stereo unspecified)	inactive: -11.5% [at 43.1 µM]	–
N#Cc1ccc(CN2CCc3n[nH]c(=O)n3CC2)cc1	inactive: 18%	–
O=C(Nc1ccccc1N1CCCC1)c1cc2ccccc2o1	inactive: -28.6%	–
Cc1cc(C(=O)CN2C(=O)NC(C)(c3cccc(Br)c3)C2=O)c(C)n1Cc1ccco1 (stereo unspecified)	–	active: 13.3 µM

SMILES	activity change, negative = inhibition	Potency
COc1ccc(-n2nc3ccc(NC(=O)c4ccc(-c5cc(Cl)ccc5Cl)o4)cc3n2)cc1	–	inconclusive: 4.22 µM [inhibitor, partial curve]
CC(C)c1nc2c(c(-c3ccc(O)cc3)n1)CCN(CC1CCCCC1)CC2	–	active: 4.73 µM
CCn1cc(CN2CC(Oc3ccc(-c4noc(-c5ccncc5)n4)cc3)C2)cn1	–	active: 13.3 µM
COc1ccc(-c2ccc(SCc3ccccn3)nn2)cc1OC	inactive: -0.343%	–
Cc1ccc(Sc2ccc(N3CCCC(C(=O)Nc4ccc(F)c(Cl)c4)C3)nn2)cc1 (stereo unspecified)	inactive: -3.9%	–
CCOC(=O)c1ccccc1NC(=O)c1cn(CC(C)C)c(=O)c2cc(OC)c(OC)cc12	–	active: 8.41 µM
CCOC(=O)N1CCN(C(=O)c2ccc3c(c2)N(C)C(=O)/C(=C\c2ccc(OCC)c(OC)c2)S3)CC1	–	inconclusive: 6.68 µM [inhibitor, partial curve]
COc1cc2c(cc1OC)C(COc1ccc3c(C)cc(=O)oc3c1)N(C(=O)Cc1ccc(F)cc1)CC2 (stereo unspecified)	–	inconclusive: 5.96 µM [inhibitor, full curve]
O=C(Nc1ccccc1)c1cnc(N2CCCCC2)c2ccccc12	inactive: 6.64%	–
CCOc1cc(C)c(-c2onc(C(F)(F)F)c2-c2csc(C)n2)c(O)c1	–	inconclusive: 9.44 µM [inhibitor, single point]
COc1ccc(-n2nc(C3CCN(Cc4ccncc4)CC3)[nH]c2=O)cc1	inactive: 10.1%	–
COc1ccc(-c2cc(N3CCC(NC(=O)c4ccoc4)CC3)n[nH]2)cc1	–	inconclusive: 21.1 µM [inhibitor, single point]
Cc1cc(NCc2ccccn2)n2nc(C)c(-c3ccc(Cl)cc3)c2n1	–	inconclusive: 16.8 µM [inhibitor, single point]
CCOc1ccccc1NC(=O)Cn1cccc1-c1nc(-c2ccc(OC)c(F)c2)no1	–	inconclusive: 21.1 µM [inhibitor, single point]
CCNC(=O)N1CC[C@H]2CC(=O)N([C@H](C(N)=O)C(C)C)CC[C@H]2C1	inactive: 37.8% [at 43.1 µM]	–
COC1CCN(CC2CCCCCN2C(=O)CCCc2ccccc2)CC1 (stereo unspecified)	–	inconclusive: 23.7 µM [inhibitor, single point]
CCC1CCc2c([nH]c3ccccc3c2=O)O1 (stereo unspecified)	–	inconclusive: 18.8 µM [inhibitor, single point]
N=c1ccn(Cc2ccc(F)cc2)cc1	–	inconclusive: 21.1 µM [inhibitor, single point]
CCOc1ccc(CC(=O)NCCn2ccn3nc(-c4cccc(OC)c4)cc3c2=O)cc1	–	inconclusive: 21.1 µM [inhibitor, single point]
COc1ccccc1NC(=O)CSc1nc2c(oc3ccccc32)c(=O)n1-c1ccc(C)cc1	–	active: 15 µM
COc1ccccc1N1CCN(C(c2cc3ccc(C)cc3[nH]c2=O)c2nnnn2C2CCCC2)CC1 (stereo unspecified)	–	active: 7.5 µM
COc1ccc(C(=O)N2CC(C(=O)NCCc3ccccc3)CC(c3ccccc3)C2)cc1OC (stereo unspecified)	–	inconclusive: 16.8 µM [inhibitor, single point]
COc1ccc(C(=O)N2CCC3(CC2)COc2ccccc2CN3)cc1	–	active: 10.6 µM
